In CN111690066A:

Target: IL-4Rα on TF-1 cells (human) (UniProt P24394)
Experiment: cell-based or functional assay

B1: Tab2 (L1012H1031) (antibody, from another filing, V domains shown)
VH: EVQLVESGGGLVQPGGSLRLSCAASGFTFSRNAMFWVRQAPGKGLEWVSGIGTGGATSYADSVKGRFTISRDNAKNSLYLQMNSLRAEDTAVYYCARGRYYFDYWGQGTLVTVSS
VL: [no letters for about 100 residues]
An EC50 of neutralisation of IL-4-induced TF-1 cell proliferation of 0.067 nM and an EC50 of neutralisation of IL-13-induced TF-1 cell proliferation of 0.097 nM were found for B1 in this work.
